# Data taken from the supplement of paper PMC4166925.
# ± gives the standard deviation of the averaged measurements. In all, about 33,000 sequences were measured (“E-score (dimensionless, -0.5 to 0.5)”: median about -0.049, highest 2% from about 0.37 on). The list shows a part of the results.
# System: T1, PmTbr T-box DNA-binding domain (GST fusion)
# T1 sequence: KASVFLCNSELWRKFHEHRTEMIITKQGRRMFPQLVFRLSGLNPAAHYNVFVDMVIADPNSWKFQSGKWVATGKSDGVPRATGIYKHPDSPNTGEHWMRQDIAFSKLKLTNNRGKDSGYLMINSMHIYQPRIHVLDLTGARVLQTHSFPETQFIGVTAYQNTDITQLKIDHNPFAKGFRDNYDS
# Assay: PBM E-score of 8-mer (E-score (dimensionless, -0.5 to 0.5)); Tbr is Tbrain of the sea star Patiria miniata (Pm) or the sea urchin Strongylocentrotus purpuratus (Sp); higher = stronger binding preference; most listed sequences are background and not binding sites
# Details: the construct has about 5 more residues each side
# Outline: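 Expression of GST-fused Tbr T-box DNA-binding domains, each holding the full T-box plus roughly five flanking residues, was carried out in BL21 E. coli at 20 °C, with purification by glutathione affinity chromatography. Universal Agilent arrays made double-stranded by primer extension were incubated with the protein at 200 nM in PBS (pH 7.5), then scanned and quantified. All ungapped 8-mers were scored from probe intensities, and each received an enrichment E-score from the Universal PBM Analysis Suite, averaged over duplicate arrays.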
row,Sequence,PBM E-score of 8-mer
1,GACCAATA,-0.175 ± 0.013
2,AGTGCCAT,0.211 ± 0.035
3,GCACTAGC,0.0942 ± 0.018
4,CCGCCCTC,-0.058 ± 0.046
5,CCGTCGGA,-0.209 ± 0.013
6,CAAGTTTC,-0.00235 ± 0.0011
7,ACCATGCT,-0.00328 ± 0.0055
8,CTAGCTGC,0.0678 ± 0.053
9,CGGTTTAC,-0.132 ± 0.011
10,TTTAGAAA,-0.102 ± 0.013
11,CGATCTCC,-0.0913 ± 0.068
12,AGTCCTGA,-0.212 ± 0.0058
13,GCTCTATA,-0.25 ± 0.048
14,AATGGACT,-0.16 ± 0.0072
15,CTGACTGA,-0.168 ± 0.029
16,AAAGTGGG,0.089 ± 0.01
17,AATTATAT,-0.201 ± 0.082
18,CGCGCGAG,0.27 ± 0.023
19,AGAACAAA,-0.153 ± 0.13
20,CAGCTAGC,0.149 ± 0.028
21,CACGAGAG,-0.0591 ± 0.03
22,AATGGGAT,-0.184 ± 0.0093
23,CTAATCTC,0.00403 ± 0.021
24,TCAGCTAA,0.0376 ± 0.042
25,GACCTGAA,0.0244 ± 0.077
26,CGCATGTC,0.0309 ± 0.08
27,GATACATA,-0.123 ± 0.052
28,CGGAACCG,-0.17 ± 0.037

row,Sequence,PBM E-score of 8-mer
1,CGTAACCA,-0.155 ± 0.007
2,CCTTCCCC,-0.103 ± 0.15
3,ACACCAGA,0.316 ± 0.017
4,AAACGTTA,-0.111 ± 0.044
5,CCAAGGGC,-0.00209 ± 0.0086
6,AAAATCCG,0.047 ± 0.0082
7,ATACTATA,0.0121 ± 0.026
8,AAAATCGA,0.0546 ± 0.01
9,GCGTCTGA,0.00628 ± 0.061
10,CTGAGGCA,-0.0583 ± 0.05
11,CGTAAAAG,-0.0534 ± 0.03
12,CGATGCGC,0.0129 ± 0.01
13,AACGATAT,-0.0689 ± 0.052
14,CAACTCAA,-0.019 ± 0.02
15,TAGTCAAA,-0.2 ± 0.035
16,CATTGAGC,-0.111 ± 0.022
17,CGATCTTA,-0.0203 ± 0.061
18,CGAAGAGC,-0.116 ± 0.044
19,ACGGTCCT,-0.1466 ± 0.00044
20,TTACGGAA,-0.157 ± 0.052
21,CCGCGTAA,-0.124 ± 0.016
22,ATGCGCTA,0.0835 ± 0.063
23,CTTAAGAC,-0.218 ± 0.055
24,AGTGCCGG,0.189 ± 0.029
25,AACCGTGT,0.207 ± 0.014
26,ACGAGACG,-0.0653 ± 0.0085
27,GTTTGCCA,0.0628 ± 0.025
